# Results reported in the supplement of paper PMC12217912.
# The list shows a part of the results. Sequences were assembled here from the parent chain. Inactive controls read about 0.05.
# B1: TEV protease; numbered along this chain (parent)
# chain: MGESLFKGPRDYNPISSSICHLTNESDGHTTSLYGIGFGPFIITNKHLFRRNNGTLVVQSLHGVFKVKDTTTLQQHLVDGRDMIIIRMPKDFPPFPQKLKFREPQREERICLVTTNFQTKSMSSMVSDTSCTFPSGDGIFWKHWIQTKDGQCGSPLVSTRDGFIVGIHSASNFTNTNNYFTSVPKNFMELLTNQEAQQWVSGWRLNADSVLWGGHKVFMVKPEEPFQPVKEATQL
# Variants of: B1
# Assay: raw area under fraction-flipped curve 0-4 h after induction (AUC4h, not background-subtracted), DNA-recorder readout of cleavage of the substrate (dimensionless); higher = more cleavage of the substrate by the protease variant
# Conditions: temperature: 34 °C; time window: 0-4 h after rhamnose induction
# Experimental: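 In vivo DNA recorder in E. coli TOP10(DE3) ΔrhaA at 34 °C. Each TEVp single-site mutant (parent TEVp 0) is paired with a single-site variant of the 7-mer TEVs (canonical ENLYFQ|S). The substrate sits between flexible linkers in a Bxb1-sfGFP-TEVs-SsrA fusion, so cleavage stabilises Bxb1 and speeds flipping of a recombination array, read by NGS. The value is the raw area under the fraction-flipped curve over 0-4 h after rhamnose induction (AUC4h), with ≥20 reads per time point. It is not background-subtracted; inactive controls average about 0.047.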
# 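Further: Bxb1 expression induced with 0.2% (w/v) L-rhamnose at OD600 near 0.5, cultures sampled hourly, flipped fraction per protease–substrate barcode pair counted by paired-end Illumina sequencing.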
Variant,area with substrate ENLYFQC,area with substrate ENLYFQG,area with substrate ENLYFQH,area with substrate ENLYFQI,area with substrate ENLYFQR,area with substrate ENLYFQS,area with substrate ENLYFQL,area with substrate ENLYFQM,area with substrate ENLYFQQ,area with substrate ENLYFQT
N193Y,0.0882,0.044,0.0654,0.0498,0.0537,0.0769,–,–,–,–
G213T,0.0695,0.0728,0.0584,0.0765,–,0.0598,0.0478,0.044,0.033,0.0564
S158V,0.065,0.0611,0.0528,0.0526,0.0386,0.0535,0.0463,0.0644,–,0.0611
S158L,0.0472,–,–,–,–,0.0466,–,–,–,0.0322
N116W,0.103,–,–,–,0.051,0.095,0.0609,–,0.0742,0.0948
N116V,0.128,–,0.0722,–,0.0572,0.101,–,0.0755,–,–
F117P,0.0829,–,–,0.0614,0.0521,0.0964,–,0.083,–,0.0643
V217E,0.0468,0.0635,–,0.0486,0.0503,0.0602,0.0611,0.0427,–,–
S121F,0.114,–,–,0.0737,–,0.1,0.055,0.0924,0.0439,–
Q198G,0.102,0.103,–,–,–,0.0938,–,–,0.0603,0.0186
H143N,0.0923,0.182,–,–,–,0.0836,–,0.0673,–,–
S135L,0.0543,0.061,–,0.0526,0.0541,0.075,0.06,0.0616,–,–
K142N,0.116,0.102,0.0741,0.0567,–,0.0934,0.0514,0.0779,–,0.065
L156Y,0.0632,–,0.0604,0.0378,0.0873,0.0625,–,0.0547,–,0.0612
W141F,0.0771,0.0897,–,0.0432,–,0.0842,–,0.081,–,0.0543
N178Y,0.199,0.111,0.131,0.0643,0.0457,0.172,0.0761,–,–,0.0693
N178S,0.147,0.0967,–,–,–,0.0963,0.0511,–,–,–
H215I,0.0883,–,–,–,–,0.0744,–,–,–,–

Variant,area with substrate ENLYFQC,area with substrate ENLYFQG,area with substrate ENLYFQH,area with substrate ENLYFQI,area with substrate ENLYFQR,area with substrate ENLYFQS,area with substrate ENLYFQL,area with substrate ENLYFQM,area with substrate ENLYFQQ,area with substrate ENLYFQT
H215L,0.0787,–,–,–,0.0596,0.0819,0.0613,0.0611,–,0.059
L190T,0.114,0.094,–,0.0694,0.067,0.113,0.0601,–,–,–
G214W,0.0679,–,0.0589,–,0.0377,0.0694,–,–,–,–
T115K,0.103,–,0.0926,0.0585,0.0693,0.107,0.0668,0.0848,–,0.059
E108G,0.0893,–,–,0.0471,0.0424,0.0765,–,0.0569,–,0.0598
N175Q,0.128,–,–,0.0568,0.0581,0.108,–,0.0828,–,–
S124C,0.107,0.0925,–,0.0615,0.0532,0.1,0.0223,0.1,–,0.0938
S124Y,0.0646,0.0739,–,0.0716,0.0737,0.0919,0.0586,–,–,0.0877
Q194C,0.101,0.135,0.0696,0.0455,0.0734,0.124,0.0568,0.0954,0.0614,–
S182E,0.0658,0.0325,–,–,0.0579,0.0791,0.0533,0.0675,–,0.0436
S182C,0.0983,0.105,–,–,0.0598,0.114,–,0.0797,–,–
S182F,0.048,0.0445,0.052,0.0554,0.058,0.0539,0.0464,0.0773,0.0584,0.0522
S182V,0.18,–,–,–,–,0.109,–,–,–,–
L191Q,0.0689,–,0.0464,0.0585,0.0466,0.063,0.0449,0.0652,–,0.0695
N172Q,0.0641,–,–,0.0647,–,0.0561,0.0429,0.0592,–,–
Q197R,0.1,0.0965,–,0.0563,0.0663,0.086,–,–,–,–
Q197I,0.145,–,–,–,0.0805,0.108,–,0.0849,–,0.0358
G166K,0.0506,–,–,0.0487,–,0.053,–,0.0588,–,–

# Same assay, conditions: temperature: 34 °C; time window: 0-4 h after rhamnose induction
Variant,area with substrate ENLYFQW,area with substrate ENLYFQY,area with substrate ENLYFQK,area with substrate ENLYFQV,area with substrate ENLYFQF,area with substrate ENLYFQD,area with substrate ENLYFQN,area with substrate ENLYFQE,area with substrate ENLYFQP
G213T,0.0674,0.0599,–,–,–,–,–,–,–
S158V,–,–,0.0544,0.0447,–,–,–,–,–
S158L,–,–,–,–,0.024,–,–,–,–
N116W,–,0.0671,–,0.0694,–,0.0823,0.0805,–,–
N116V,0.0731,0.0744,–,–,0.0665,–,–,0.089,–
F117P,0.0562,–,0.0858,0.0608,–,0.0697,–,–,–
V217E,–,–,0.0704,–,–,0.0636,0.0517,–,–
S121F,–,–,–,0.0514,–,–,0.0745,–,0.081
Q198G,–,0.0789,0.0543,0.058,0.0744,0.0709,–,–,0.0779
H143N,–,–,0.0272,0.0519,–,–,–,0.0665,–
S135L,0.0536,–,–,–,–,–,–,–,0.0726
K142N,–,–,–,0.0417,–,–,0.0888,–,–
L156Y,0.0616,0.059,0.0652,0.0616,–,–,–,0.0447,0.0542
W141F,0.0537,–,–,0.0718,–,0.0731,0.0755,–,–
N178Y,–,0.129,0.0734,0.0605,0.157,–,–,–,–
N178S,–,–,–,0.0673,–,–,0.0882,–,0.0589
H215L,–,–,0.0438,–,0.0553,0.0595,0.0619,–,0.0529

Variant,area with substrate ENLYFQW,area with substrate ENLYFQY,area with substrate ENLYFQK,area with substrate ENLYFQV,area with substrate ENLYFQF,area with substrate ENLYFQD,area with substrate ENLYFQN,area with substrate ENLYFQE,area with substrate ENLYFQP
L190T,0.0922,–,0.0585,–,–,–,–,–,–
G214W,–,–,–,–,–,0.103,–,–,–
T115K,–,–,0.0648,–,–,–,0.0863,–,0.0621
E108G,0.0291,–,–,–,–,–,–,–,–
N175Q,0.0282,–,0.0513,–,–,–,0.0819,–,0.0526
S124C,0.0521,–,0.0601,0.0576,–,–,0.108,–,0.0582
S124Y,0.0678,–,0.0767,0.0536,0.0843,–,–,–,–
Q194C,–,0.0715,0.0663,0.0455,–,0.0441,0.0877,–,0.0589
S182E,0.0557,–,–,–,–,0.0944,–,–,–
S182C,–,–,0.0973,–,–,–,0.0945,–,0.0558
S182F,–,0.0842,0.0394,0.0569,–,–,0.0467,–,0.0509
S182V,0.0568,–,–,–,–,–,0.0567,–,–
L191Q,0.0531,–,–,0.0757,–,–,0.0497,–,0.0607
N172Q,–,–,–,–,0.0518,–,0.0603,–,0.071
Q197R,–,–,–,0.056,–,0.0678,–,–,–
Q197I,0.0727,–,–,–,0.0954,–,–,–,–
G166K,0.0458,–,–,0.0408,0.0598,0.0721,–,–,0.0355
